Measurements from PubChem BioAssay AID1963576 (National Center for Advancing Translational Sciences (NCATS), 2024).
In all, about 46,000 compounds went through this assay and about 60 (0.1%) were called active. Another 3% or so got no clear call; they are omitted. Calls come from the whole dose curve; as a rule, active = well fitted inhibition curve with a large enough effect; inconclusive = small, poorly fitted or top-dose-only effect; inactive = no such curve, though single readings can be large or run the other way. The list shows a part of the results.

test: Primary qHTS assay for Inhibitors of ovarian cancer metastasis using an organotypic tumor microenvironment (TME) model.; note: nearly all actives have a fitted effect of over 65% in size;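 for activity change, negative = inhibition: plate controls were DMSO wells for no effect and tomatine positive control wells for full effect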; conditions: SKOV3ip1-GFP adhesion/invasion on 3D omental model, fluorescence; series mostly up to 45.8 µM; activity change, negative = inhibition: at the top concentration
Procedure, shortened: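 A 3D layer of primary human omental fibroblasts, mesothelial cells, fibronectin and collagen I, grown 48 hr, received SKOV3ip1-GFP cells in serum-free medium plus compounds at 0.36-46 umol/L. After 2 hr RT and 16 hr 37 C, fixed adherent GFP cells were counted; normalized to DMSO and tomatine.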

Activity change, negative = inhibition, inactive:
Brc1cccc(-c2cnn3c(-c4ccccc4)cc(-c4ccccc4)nc23)c1 -8.45%, O=C(Nc1ccc(Cl)c(C(F)(F)F)c1)C(Cc1ccccc1)NS(=O)(=O)c1ccc(Br)s1 (stereo not given) 9.37%, COc1ccc(C2=C(C)C(N3CCC(C(=O)Nc4ccc(F)cc4C)CC3)=NS2(=O)=O)cc1 -8.28%, COc1ccc2cc3cc(C(=O)NCc4ccccc4OC)oc3nc2c1 10.8%, CC1(C)CC(=O)c2cc(C(=O)Nc3ccccc3Cl)c(=O)n(-c3ccc(Cl)cc3)c2C1 1.64%, O=C(NCc1ccccc1)C(=O)NCC(c1cccs1)S(=O)(=O)c1ccccc1 (stereo not given) 5.54%, CCOC(=O)c1ccc(NC(=O)c2cc3sccc3n2Cc2ccc(Cl)cc2)cc1 -16%, Cc1ccc(-c2nc3ncccc3o2)cc1NC(=O)c1ccc(-c2ccc(Cl)cc2)o1 3.76%, Cc1cccc(N2CCN(S(=O)(=O)c3csc(C(N)=O)c3)CC2)c1C 9.65%, COc1ccc(C)cc1NC(=O)Cn1c(=O)n(Cc2nc(C)no2)c(=O)c2ccccc21 7.03%, COc1ccc(NC(=O)C(C)N(c2ccccc2)S(C)(=O)=O)cc1 (stereo not given) 6.07%, O=C(c1ccccc1Cl)N1CCCCC1CCN1CCCCC1 (stereo not given) -15.5%, Cc1nn2c(=O)cc(COC(=O)c3ccccc3NC(=O)C(C)Oc3ccccc3)nc2s1 (stereo not given) -1.07%, CCOc1ccc(CN2CCc3nc(Nc4ccc5c(c4)OCCO5)ncc3C2)cc1 -0.325%, COc1ccc(NCc2cc3cc4c(cc3n(CC(=O)Nc3cc(C)ccc3C)c2=O)OCCO4)cc1 3.64%, CC(C)c1ccc(NS(=O)(=O)c2ccc3nc(-c4ccccc4)[nH]c3c2)cc1 -2.4%, COc1ccc(CCNC(=O)c2ccc(Cn3c(=O)c4ccccc4n(Cc4cccc(Cl)c4)c3=O)cc2)cc1OC 118%, CCOc1ccccc1NC(=O)C(CC)Sc1nc2ccncc2[nH]1 (stereo not given) -8.76%, CCN(CC)c1cc2c(cc1F)c(=O)c(S(=O)(=O)c1cccc(C)c1)cn2C 2.02%, Cc1ccc(-c2cn(-c3cccc(Cl)c3)c(S(=O)(=O)CC(=O)Nc3ccccc3F)n2)cc1 -10.5%, Cc1ccc(-n2nc3c(=O)n(CCCC(=O)NCCc4ccccc4Cl)nc(C)c3c2C)cc1 -15.8%, CCOc1ccc(C2CC(=O)N(c3cccc(F)c3)C3=C2C(=O)OC3)cc1 (stereo not given) 1.11%, Cn1c(=O)c2cc(C(=O)NCCCN3CCN(c4ccccc4F)CC3)sc2c2ccccc21 14.5%, Cc1ccc(-n2c(=O)c3ccc(C(=O)NCc4ccco4)cc3n(Cc3ccccc3C#N)c2=O)cc1 -7.77%, Cc1ccccc1Cn1c(=O)n(Cc2ccc3c(c2)OCO3)c(=O)c2oc3ccccc3c21 -2.32%, O=C(NC1CCCC1)c1ccc2c(c1)N(Cc1ccc(C(F)(F)F)cc1)C(=O)c1ccccc1S2 -4.59%, O=C(c1cccs1)N(Cc1cccnc1)c1nc2c(Cl)cccc2s1 3.91%, O=C(c1ccc(C(F)(F)F)cc1)N1CCC(c2noc(-c3ccc(S(=O)(=O)N4CCCC4)cc3)n2)CC1 -0.638%, COc1ccc(Nc2c3c(nc4ccc(NC(=O)/C=C/c5cc(OC)c(OC)c(OC)c5)cc24)CCCC3)cc1OC -8.85%, O=C(Nc1ccc(-c2nc3cc(NC(=O)c4ccccc4Cl)ccc3o2)cc1)c1ccccc1Cl -29.1%, CN(C)C(=O)c1ccc(NC(=O)Cn2nnnc2-c2ccccc2F)cc1 2.63%, COCCCNS(=O)(=O)c1cc(-c2onc(C)c2C)ccc1OC -4.47%, COc1ccc(-c2noc(CCC(=O)N(C)c3ccccc3C)n2)cc1 8.04%, Cc1ccccc1C(=O)N(Cc1ccc(N(C)C)cc1)Cc1ccco1 1.12%, COc1ccc(N(CC(=O)NCc2ccc(F)cc2)S(=O)(=O)c2c(C)noc2C)cc1 15.8%, N#Cc1ccc(-c2cccs2)nc1SCc1c(F)cccc1Cl -33%, CN(C)c1ccc(CN(CC2CCCO2)C(=O)COc2ccccc2Cl)cc1 (stereo not given) 15.7%, COc1ccc(OC)c(-c2nc3c(C#N)c[nH]n3c2NC2CCCCC2)c1 -15.8%, CC1=C(C(=O)Nc2ccc(Cl)cc2)C(c2ccccc2C)n2ncc(C(=O)Nc3ccc(C)cc3)c2N1 (stereo not given) -7.44%, COc1ccc(CCNC(=O)C(=O)NCC(c2ccc3c(c2)OCO3)N2CCOCC2)cc1 (stereo not given) 5.7%, Cc1cccc(OCC(=O)NC(Cc2c[nH]c3ccccc23)C(=O)O)c1C (stereo not given) -0.195%, COc1ccc(-c2ccc3c(N4CCOC[C@H]4C)nc(N4CCOC[C@H]4C)nc3n2)cc1CO -14.6%, CCc1nonc1NC(=O)c1oc2ccc(F)cc2c1C 3.76%, CN(C)c1ccc(CNC(=O)C2CCCN(S(=O)(=O)c3ccc4c(c3)oc(=O)n4C)C2)cc1 (stereo not given) 28.9%, Cn1c(=O)n(-c2ccc(C(C)(C)C#N)cc2)c2c3cc(-c4cnc5ccccc5c4)ccc3ncc21 28%, COc1ccc(-n2cc(-c3ccccc3)c3c(NC4CCCCC4)ncnc32)cc1 -15.1%, O=C(Nc1cc(F)ccc1F)N1CCC(CN2CCOCC2)CC1 6.11%, Cc1cccc(OCCCCn2c(C3CC(=O)N(c4ccccc4Cl)C3)nc3ccccc32)c1 (stereo not given) -9.25%, Cc1ccc2c(CC(=O)Nc3cccc(Cl)c3C)coc2c1 0.184%, Cn1c(=O)n(C/C=C/c2ccccc2)c(=O)c2c1nc1n2CCN1c1ccc(F)cc1 3.51%, CCOc1ccc(-c2cnc(NCc3ccc(C(F)(F)F)cc3)n2C)cc1 -17.5%, CN1CCN(c2ncc3c(n2)CCN(Cc2cc(Br)cs2)C3)CC1 5.52%, COc1ccc(C(=O)CC2(O)C(=O)Nc3c(C)cccc32)c(OC)c1OC (stereo not given) -9.91%, CCOc1ccc(-n2c(SCC(=O)Nc3cccc(Cl)c3)nc3c(oc4ccccc43)c2=O)cc1 1.25%, CCN1C(=O)c2ccccc2Sc2ccc(NC(=O)COc3ccc(Cl)cc3)cc21 1.94%, CCc1ccc(CNC(=O)c2ccc3nc(SCc4ccc(F)cc4)n(C)c3c2)cc1 -11.1%, Cc1ccc(NC(=O)CSc2cc(=O)n(C)c3ccc(Cl)cc23)c(Br)c1 -3.38%, Cc1ccc(NS(=O)(=O)c2ccc3c(c2)NC(=O)C(C)C(=O)N3)cc1F (stereo not given) -10.5%, COc1ccc(CNS(=O)(=O)c2cc3c(cc2C)n(C)c(=O)c(=O)n3C)cc1 -0.101%, COc1cccc(NC(=O)c2nn(-c3ccc(C)cc3)c(=O)n(C)c2=O)c1 -15.5%, CC(C)CN(CC(C)C)C(=O)C1CCCN(S(=O)(=O)c2ccc3c(c2)oc(=O)n3C)C1 (stereo not given) 9.85%, Cc1cccc(NC(=O)Cn2c(=O)n(CCC(C)C)c(=O)c3cccnc32)c1 16.9%, Cc1ccc(NC(=O)c2cnn(-c3ccc(C)c(C)c3)c2C2CCN(C(=O)OC(C)(C)C)CC2)c(C)c1 38%, CCCCN(C)CCNC(=O)c1c(C)oc2ncnc(N3CCOCC3)c12 -17.1%, CC(NC(=O)c1ccc2c(c1)N(Cc1cccc(F)c1)C(=O)c1ccccc1S2)c1ccccc1 (stereo not given) 3.88%, O=C(CCSCCc1ccccn1)Nc1cc(F)ccc1F 2.98%, Cc1ccc(-n2c(=O)c3c(c4cc(C)ccc4n3C)n(CC(=O)Nc3c(C)cccc3C)c2=O)cc1 -4.13%, Cc1ccc(CNc2ccc(-c3nc(C(C)C)no3)cc2[N+](=O)[O-])cc1 1.48%, Cc1oc2ccc(O)c(CN3CCOCC3)c2c1C(=O)Nc1ccccc1 -6.92%, COc1cc(NC(=O)CN2C(=O)C(c3ccc(C)cc3)=NC23CCCCC3)cc(OC)c1 -0.83%, Cc1ccc(-n2nc(C(=O)N3CCN(c4cccc(C(F)(F)F)c4)CC3)c(=O)n(C)c2=O)cc1 -0.902%, Cc1nc2c(C(=O)NCc3ccccc3)cnn2c(C)c1Cc1ccc(F)cc1 1.62%, O=c1c2cnn(-c3ccc(Cl)cc3)c2ncn1Cc1ccc(Cl)cc1Cl -11%, Cc1ccc(Cn2c(=O)n(Cc3ccco3)c(=O)c3sc4ccccc4c32)cc1 -14.8%, O=c1c2sc3ccccc3c2n(Cc2ccccc2F)c(=O)n1Cc1ccccc1 -19.1%, COc1ccc(Cl)cc1NC(=O)c1cc(C)nc2c1c(C)nn2-c1ccccc1 0.246%, COc1cccc(CNC(=O)C2CCN(C(=O)N3CCOc4ccc(Cl)cc43)CC2)c1OC -1.43%, CCC(CC)C(=O)Nc1cc(-c2cccc(C)c2)nn1-c1ccccc1 11.6%, O=C(CC1N=C2c3ccccc3N=C(SCc3ccccc3F)N2C1=O)NCCc1ccccc1 (stereo not given) 2.21%, CC(=O)N1CCC2(CC1)OC(=O)C(C)=C2C(=O)Nc1cccc(Cl)c1C -26%

outcome, inactive:
Cc1ccc(N(Cc2cccs2)C(=O)c2ccccc2Cl)cc1, Cc1cccc(NC(=O)CSc2nc(-c3ccco3)cc(C(F)(F)F)n2)c1C, O=C(Nc1nnc2n1CCS2)c1ccc(F)cc1F, Cc1ccc(NC(=O)Cn2c(=O)n(Cc3ccco3)c(=O)c3ccccc32)c(C)c1, COc1ccc(NC(=O)c2ccc3c(c2)sc2nc(-c4ccc(OC)cc4)cn23)cc1, Cc1ccc(NC(=O)CN2C(=O)CCc3cc(S(=O)(=O)N4CCOCC4)ccc32)cc1N(C)C, O=C(CCc1nc2cccnc2n1Cc1cccs1)Nc1cccc(C(F)(F)F)c1, COc1ccc(N2CCN(C(=O)CSc3n[nH]c(-c4ccccc4)n3)CC2)cc1, COc1ccccc1CNC(=O)Cc1c(C)c2c(cc(C)c3c(C)coc32)oc1=O, CCCN(c1ccc(C(C)C)cc1)S(=O)(=O)c1ccc2c(c1)CCN2C(=O)CC, Cc1ccc(-c2nc3cc(NC(=O)c4cc5ccccc5o4)ccc3o2)cc1, COc1ccc(S(=O)(=O)NCCc2sc(C)nc2C)cc1F, Cc1cccc(N2CCN(C(=O)c3cc4c(=O)oc5ccccc5c4s3)CC2C)c1 (stereo not given), CC1=C(C(=O)Nc2ccccc2)C(c2cccnc2)n2nc(SCc3ccccc3F)nc2N1 (stereo not given), CCCCC(=O)Nc1cc(C)c(O)c(-c2nc3ncccc3o2)c1
